Experimental data from the supplement of paper PMC11417369.
This is one part of the list.

Tested on: PfHDP1 homeodomain (GST-tagged)
Assay: gcPBM binding intensity (ln(normalized median fluorescence intensity)); higher = stronger DNA binding
How it was run: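 Binding of GST-tagged P. falciparum DNA-binding domains, expressed in E. coli and used at about 25 μg on average, was carried out for 1 h in 1× PBS containing 1% milk, 0.2 mg/ml BSA, 0.5% salmon testes DNA and 0.03% Triton X-100. The target was an Agilent 4 × 180k array of primer-extended double-stranded 36-bp intergenic genomic probes plus negative controls, read with Alexa488 anti-GST antibody at 488 nm. Binding intensity is the highest Masliner-normalised natural-log median intensity across replicate spots of either probe orientation.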

Sequence | gcPBM binding intensity (ln)
TATATAGAAAACAAGGCATGCAAATAACAAATTGTG [TGCATGCA_site473] | 7.33
ATATAATATATGTAAGTGCGCTTATAAATAAAACGA [GTGCAC_site9841] | 6.78
ATATATTGATATATGTGTACATAGCTTATTTCATTT [XGTACX_site1800] | 6.43
TTTTTAATTATTTATATAACGATAATCCTTACATAA [TGCATGCA_negctrl_site180] | 6.14
AAAAAAAAAAAAAAAGTGCACTGAAAATATATTGAA [GTGCAC_site9395] | 10
AACAAAAATGAAAAAACACACATAACATATATAAAT [CACACA_site740] | 7.11
ATAATATAAATAAAAACACACACAATCGTACATATA [CACACA_site9223] | 7.02
ATAGTAAATATAAAAAGTACTGATTCTTAAATTGTT [XGTACX_site5972] | 6.47
GTTCAATCGGGTGTTACTTCAAACAAGGAACAACAA [TGCATGCA_negctrl_site471] | 6.16
ACTTGACACCAACACACACACATATATAAAAAAAAA [CACACA_site756] | 7.08
TATTTTATTGTTGTTATACACACCATATAAAATATT [CACACA_site1630] | 6.68
AATATTTTAAATATTGCATGCAATGAAAAATGTAAA [TGCATGCA_site139] | 7.73
TTTTAAAGAAAATATTTTATCATTATTTTTTGTACT [CACACA_negctrl_site1648] | 6.23
TCTTATTTTTTTATATATACAAAGTTTTATATATAT [GTGCAC_negctrl_site314] | 6.73
AACATATATTAGCTTACATGCAAAAAGTAAAAAAAT [TGCATGCA_site10] | 6.9
ATATATATATATGCATGTACATATTTATCTTTATAT [XGTACX_site232] | 9.17
AAAACATCAAAAATGTGTACATATATATATATATAT [XGTACX_site8884] | 9.36
AATTTAAAACGGAGATGTACATATATAAATATATAC [XGTACX_site3723] | 6.14
TATATATCTGTGAAAATACTTAAATTGTTATAAAAA [CACACA_negctrl_site1109] | 6.06
CGGCTATTTCTATATACATGCATTTAAAAAAAAAAT [TGCATGCA_site354] | 6.41
ACCTATTTCAAACACACACACACACTAACAAACATA [CACACA_site8233] | 7.24
AAAAAAAAAATGAGCACACATAAATAAAAACAAACA [CACACA_site1573] | 7.39

Sequence | gcPBM binding intensity (ln)
CTAATCGTGCACAACTGTACATTTGTCAAGGGCAAT [XGTACX_site8662] | 10.8
ATGTGAACATTCAATGCACACGATGTAATTATACAT [CACACA_site15] | 9.65
TTTTTAATATATATCACACATATATATTTTTAATTA [CACACA_site6099] | 6.44
ATAAAAATCTTTAGTAGTACATTATAAAAAACTATT [XGTACX_site5531] | 6.31
TATACAATATATATAACACACATATTTATATAAAAT [CACACA_site5061] | 6.58
ACAAATCTATAAGAGTGTACGAACAGTAAAGGAATT [XGTACX_site2070] | 7.15
AACATAAAAATTGAAGCACACACACTAATGAAATAC [CACACA_site8287] | 7.19
AAAATACCATTTGAAACACACAAAAAAAAAAAAAAT [CACACA_site2981] | 6.26
CAGTTGGAAGGAAAGTGTACATAAAAAAAAATATAA [XGTACX_site8784] | 6.69
ATAAAAATTAAAAGGAGTACTTAAATATTAAGATGG [XGTACX_site4815] | 6.54
TTTAAAAATATATATTGTACATATATATATCTATGA [XGTACX_site3556] | 6.35
TTTATTTAAAAAATAAAAAAAAAAAAAAAAAAAAAA [CACACA_negctrl_site1670] | 6.17
TACTATTTAAAATTTGAACACACATTATTTATTTTA [CACACA_site9020] | 6.32
AGTTATTTTAAATGTAGTACACAAAAGAAATATTAA [XGTACX_site4092] | 6.66
CATAAATTAAAACACACACACACAAAAAAAAAAAAA [CACACA_site2262] | 6.73
ATATTATATATATACACACACACATGCATGCACATA [CACACA_site7917] | 10
TATTTTCTCGTTTGCATGCACCTTATTTTATGTGGT [GTGCAC_site9470] | 9
TAAAATTTGCGATGCACACAGAATAGCTAATATGAC [CACACA_site2995] | 8.5
TACTAAAACCCATACACACACATATTTATAGTACCA [CACACA_site7484] | 6.77
AAATTCTGCATCGAGGTGCGCCATAAAAATTGTGGT | 7.38
CATATATATTTTATATGTACATATATATTTTATATA [XGTACX_site8665] | 6.35
ATATATATTTAAAACGCATGCCTTGTTATATATATA [TGCATGCA_site624] | 6.97

Sequence | gcPBM binding intensity (ln)
ATTACAAAAATATATAAACACACAAATATAATATAT [CACACA_site8962] | 6.9
TAGATATATAGAATTACACACTTTTCTATAATATGA [CACACA_site6475] | 6.11
ATATATATTATAATAACACACATATATTATATTATA [CACACA_site406] | 6.52
TATATATATAAATGAATGCACTTTAGAAAAAAGTAC | 7.93
ATAAAATAAAACAACACACACGAATGTATAAATATA [CACACA_site4643] | 6.7
TAATAATATAAATATGCACACAAATTATTACCCAAA [CACACA_site8805] | 9.53
AATAAAATACAAAAATGTACAAATATAATATACATA [XGTACX_site279] | 6.08
ACATACTCAAATAGCACACACATAAATAAAAATGTA [CACACA_site3864] | 7.77
TAATATAAAATGATAAATGAATGTGATCATTTTATA [CACACA_negctrl_site1034] | 6.05
TTTTGTTCTAATATGGGAACATAAATATTAAATATA [CACACA_negctrl_site1787] | 6.22
AATGGAAAAGGTAGTTGTACAACATGTTAAAATGGT [XGTACX_site1312] | 7.56
ATATAAATATTAATTACACACAAAAAAAAAAAAAAA [CACACA_site6671] | 6.26
CTCAAAAAATTTCATAGTACTTTAAAATACTATAAT [XGTACX_site1939] | 6.14
AATAAAAAAAAACGCACACACAAATATATTCCATTC [CACACA_site1224] | 6.87
TTGAAGAATAAATATGCACACATGCATATATTTTTA [CACACA_site5840] | 9.33
ATATAAATAAACAACTTTGTTGGCCTTCCAAAATAT [CACACA_negctrl_site1181] | 6.29
GGGTTGATATATATTTGTACATATTATTATTTATTA [XGTACX_site7116] | 7.37
ATATATATATATTATGTGCGCATATACCATTTTAAT [GTGCAC_site9575] | 8.83
TTTATTTTAACTTGTTCACACATTTGAATAAATAAA [CACACA_site5064] | 6.3
ACATTTATATATAATTGTACCCTACATTCTCTTTTT [XGTACX_site189] | 6.43
GAAAAAAAAAAAAAAAGAAAATTCATATTTTTAATA [XGTACX_negctrl_site513] | 6.08
AAAAATATATAAACACGTACACACACATATATGTAT [XGTACX_site7436] | 6.61

Sequence | gcPBM binding intensity (ln)
TACCAAAAAAAAAAAAAAAATTAAATAAATATGAAA [TGCATGCA_negctrl_site383] | 5.82
AGATATTTTTCTTAAGTACACACTAAATAGAAACTA [CACACA_site44] | 6.12
TTTTTTTTTTTCAGTTGTACATTGGGAAAATATATA [XGTACX_site4416] | 6.27
AGTCTGAATAAAATTACACACATATACCTATAAATA [CACACA_site6929] | 6.4
TTTAAAAAAATGAAATAAAAAAAAAATAAAATAAAA [XGTACX_negctrl_site316] | 6.36
AAATAATTTATATATTGTACAAATATTAAATGCGAA [XGTACX_site3390] | 7.16
ATATATATAATTTGTACACACAAATATGCATATATA [CACACA_site3432] | 6.64
AGTACATTTTTTTTAATAGGAAAAAAAATATTTATT [TGCATGCA_negctrl_site575] | 6.17
AAGTATTATTTTTATGCATGTGAAGTGCAAAATAAA [TGCATGCA_site198] | 10.2
ATAATATGTAATATTACACACAATTCATCATTTTTT [CACACA_site3159] | 6.53
ATATACACCGTTGAATGTACATAAATAATATTAATA [XGTACX_site2893] | 6.83
AAAAAGTGACTCCTTACACACTTTACATAATTTAGT [CACACA_site4606] | 6.24
TAAAAGAATAAAAGTAGTACTTTTTTTTATATTAGA [XGTACX_site368] | 5.7
TCTTTTTTTTTTTATTGTACAAGAAAAGGAAAAAAT [XGTACX_site3717] | 6.51
ATATTTTTATATTAGTGTACTTATTATAATGTATAG [XGTACX_site8185] | 6.33
ATATAATATATATGGTGTACATTTTTTAGTGCTATT [XGTACX_site1662] | 6.9
TATATATATATTTATACACACATTAGTGTAGACATG [CACACA_site8964] | 8.51
TCCTTATAAATATATATATAATATATATATATATAT [CACACA_negctrl_site293] | 8.74
TTGTTCTAATATATTGCACACGTAAAAATATAGGTA [CACACA_site8195] | 10.1
AAGTATGCATTATATACACACATACATTTATATATT [CACACA_site4242] | 6.78
TTGGTTATACAACACATGCACACGTAAATAAATATT [CACACA_site3841] | 9.06
TATATATAAAGAGAAACATGCAAAATGTGAATATTC [TGCATGCA_site377] | 7.26
